# Test results published in paper PMC4336329 (PLoS ONE, 2015).
# Out of some 310,000 compounds screened, about 14,000 (4.5%) showed an effect of 50% or more. The effect is printed as a negative number. The list shows a part of the results.
# Biological target: human ether-à-go-go-related gene (hERG) potassium channel (human, UniProt Q12809)
# Test: primary screen, population patch clamp on CHO cells stably expressing hERG
# 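Further: peak tail current of the secondary pulse compared with the same well before compound.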
# Chain of human ether-à-go-go-related gene (hERG) potassium channel (Q12809 whole entry, looked up): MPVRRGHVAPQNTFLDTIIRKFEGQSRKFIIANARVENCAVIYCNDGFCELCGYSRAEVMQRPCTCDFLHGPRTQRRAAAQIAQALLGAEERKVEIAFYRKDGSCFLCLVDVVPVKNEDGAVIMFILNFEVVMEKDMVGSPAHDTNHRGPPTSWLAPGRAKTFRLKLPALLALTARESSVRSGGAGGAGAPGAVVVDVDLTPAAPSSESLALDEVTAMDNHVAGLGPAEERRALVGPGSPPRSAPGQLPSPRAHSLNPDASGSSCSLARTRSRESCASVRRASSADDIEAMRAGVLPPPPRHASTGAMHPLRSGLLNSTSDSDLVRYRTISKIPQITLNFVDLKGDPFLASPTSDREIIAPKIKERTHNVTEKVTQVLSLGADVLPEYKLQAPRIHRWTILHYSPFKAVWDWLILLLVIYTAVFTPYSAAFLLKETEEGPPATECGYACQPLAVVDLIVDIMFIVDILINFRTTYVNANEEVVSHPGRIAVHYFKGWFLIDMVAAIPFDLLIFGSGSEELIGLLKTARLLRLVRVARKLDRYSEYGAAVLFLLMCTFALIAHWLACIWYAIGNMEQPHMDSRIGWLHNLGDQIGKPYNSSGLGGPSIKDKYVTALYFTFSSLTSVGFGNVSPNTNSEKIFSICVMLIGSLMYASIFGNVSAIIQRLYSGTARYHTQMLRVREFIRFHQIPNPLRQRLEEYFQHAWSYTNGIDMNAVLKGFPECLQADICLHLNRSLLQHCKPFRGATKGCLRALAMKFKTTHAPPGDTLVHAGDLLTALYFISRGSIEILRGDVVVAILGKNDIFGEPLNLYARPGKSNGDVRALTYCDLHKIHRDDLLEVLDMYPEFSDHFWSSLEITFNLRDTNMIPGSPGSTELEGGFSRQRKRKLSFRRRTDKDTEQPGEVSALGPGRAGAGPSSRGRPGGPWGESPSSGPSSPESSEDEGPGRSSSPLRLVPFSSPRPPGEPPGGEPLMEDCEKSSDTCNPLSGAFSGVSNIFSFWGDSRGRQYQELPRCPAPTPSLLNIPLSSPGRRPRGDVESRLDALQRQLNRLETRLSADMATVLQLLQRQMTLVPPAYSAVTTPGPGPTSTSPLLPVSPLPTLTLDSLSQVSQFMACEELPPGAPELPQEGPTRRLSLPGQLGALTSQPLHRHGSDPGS
row,SMILES,"hERG current change (%, negative = inhibition) at 10uM [%]"
1,CC(C)(C)C(=O)NNC(=O)c1cc(C(C)(C)C)nn1Cc1ccccc1,-0.263
2,Cc1ccc(OCc2nnc(SCC(=O)N3C(C)CCCC3C)o2)cc1 (centres unmarked),5.56
3,COc1ccc(C(C(=O)NCc2ccccc2)N(C(=O)c2snc(C(N)=O)c2N)C2CCCC2)cc1O (centres unmarked),-39.5
4,C(=N\N(Cc1ccccc1)c1ccccc1)/c1cccnc1,7.86
5,O=C(OCC(=O)N(C1CCCCC1)C1CCCCC1)c1ccco1,6.95
6,Cc1cc(C)n2nc(C(=O)Nc3cccnc3)nc2n1,-14.1
7,CCOc1ccc(N2C(N)=NC(N)=NC2(C)C)cc1.Cl,-4.18
8,Cc1[nH]c(-c2ccc(F)cc2)cc1C(=O)N1CCN(c2ccc(Cl)cc2)CC1,-13.4
9,O=C1CN(C(=O)NCC(=O)N2CCCC2)c2ccccc2N1,20.4
10,CCN(CC#CCC(O)(c1ccccc1)c1ccccc1)C(C)C.Cl,-19.5
11,Cc1ccc(/C=C/C(=O)Nc2ccc(S(N)(=O)=O)cc2)o1,26
12,Cc1ccc(NS(=O)(=O)c2cc([N+](=O)[O-])ccc2NNC(=S)Nc2cccc(Cl)c2)c(C)c1,26
13,CCN1C(=O)CC(N2CCN(c3ccc(C(=O)c4ccncc4)cc3)CC2)C1=O (centres unmarked),-12.3
14,COc1ccc(CC(=O)Nc2c3c(nn2C(C)(C)C)CS(=O)(=O)C3)cc1OC,1.84
15,O=C(Cc1ccc(F)cc1)Nc1nccs1,9.75
16,COc1cc2c(cc1OC)C(C(=O)NC(C)c1ccccc1)CC(=O)N2 (centres unmarked),10.4
17,Cc1cc(N2C3CCC2CC(O)(c2ccc(F)cc2)C3)nc(-c2ccccc2)n1 (centres unmarked),8.4
18,O=C(NCc1ccccc1)NC(=O)c1ccccc1,-11.1
19,Cc1c(-n2c(SCC(=O)C(C)(C)C)nc3ccccc3c2=O)c(=O)n(-c2ccccc2)n1C,5.58
20,N#C/C(=C(/O)c1ccc([N+](=O)[O-])s1)c1nc2ccccc2[nH]1,19.7
21,Cc1cccc(NC(=O)COC(=O)CCc2ccc(S(=O)(=O)N3CCOCC3)cc2)c1C,8.89
22,FC(F)(F)c1cccc(N2CCN(Cc3ccoc3)CC2)c1,-60.4
23,O=C(CSc1nc2ccccc2c(=O)n1-c1ccc(F)c(Cl)c1)Nc1cccc(S(=O)(=O)N2CCOCC2)c1,21.8

row,SMILES,"hERG current change (%, negative = inhibition) at 10uM [%]"
1,COc1ccc(-c2c(C)nn(-c3ccccc3)c2N)cc1,-19.9
2,COC(=O)c1ccc(CNCC(=O)Nc2ccc(C(=O)OC)cc2)cc1,1.47
3,CN(C)c1ccc(CC2C(=O)Nc3ccccc32)cc1 (centres unmarked),-10
4,Cc1noc(/C=C/N(C)C)c1S(=O)(=O)N1CCCC(C(=O)Nc2ccccc2F)C1 (centres unmarked),5.26
5,COc1ccc(S(=O)(=O)N2CCOC2CNC(=O)C(=O)NCCN(C)C)cc1 (centres unmarked),13.2
6,O=C(c1ccc(Br)cc1)c1cc([N+](=O)[O-])ccc1N1CCOCC1,-30.7
7,COc1cc(N(C)C)c([N+](=O)[O-])cc1C(=O)N1CCOCC1,30.2
8,Cc1occc1C(=O)NNC(=O)C(c1ccccc1)c1ccccc1,19.7
9,O=C(OCc1nnc(-c2cccs2)o1)c1cccnc1Cl,4.2
10,COc1ccc(C(=O)NC(C)c2ccncc2)cc1S(=O)(=O)N(C)Cc1ccccc1 (centres unmarked),-61
11,O=C(CN1CCCC1)N1c2ccccc2Sc2ccccc21,-10.1
12,CCOc1ccc(-n2c(SCC(N)=O)nnc2-c2ccco2)cc1,-1.15
13,CC(C)c1nnc(NC(=O)c2cccnc2)s1,10.7
14,O=[N+]([O-])c1ccc(C[n+]2cc(-c3ccccc3)n3c2CCCCC3)cc1.[Br-],-35.3
15,COc1ccc(CCC(=O)Nc2nc(C)c(C(=O)N(C)C)s2)cc1,-2.23
16,COc1cc(/C=N/N2CCN(C3c4ccccc4-c4ccccc43)CC2)ccc1O,-0.366
17,CC(C(=O)N1c2ccccc2CCc2ccccc21)n1nnc(-c2ccc(N(C)C)cc2)n1 (centres unmarked),-3.29
18,NC[C@H](Cc1ccccc1)NCCCCC1CCCCC1,11.3
19,O=C(NC1CCCCC1)C1CCN(c2ncccn2)CC1,8.05
20,O=C(CCc1ccccc1)Nc1ccc(S(=O)(=O)Nc2nccs2)cc1,-6.34
21,COC(=O)C1=C(c2ccc(S(C)(=O)=O)cc2)C[C@@H]2CC[C@H]1N2C,0.0714
22,CC1(C)CC(C)(O)P(=O)(c2ccccc2)O1 (centres unmarked),-6.77
23,CN(C)S(=O)(=O)c1ccc(Cl)c(NC(=O)CN2CCCCCC2)c1,-24.6

row,SMILES,"hERG current change (%, negative = inhibition) at 10uM [%]"
1,O=S(=O)(NC1CCCC1)c1cc(F)ccc1F,-8.75
2,CC1CCCCN1C(=O)CSc1nnc2c(n1)[nH]c1ccc(F)cc12 (centres unmarked),8.32
3,Cc1ccc(NC2=NCCC2)cc1Cl,1.29
4,CCN1CCc2c(sc(NC(=O)c3cc4ccccc4cc3OC)c2C(N)=O)C1.Cl,-46
5,C/C(=C/C=C/[C@@H](C)C(=O)O)[C@H]1CN[C@H](C(=O)O)[C@H]1CC(=O)O,2.57
6,N#Cc1c2n(c3c(=O)n(Cc4ccc(Cl)cc4)cnc13)CCCCC2,-23.7
7,Br.CC1=CS(=O)(=O)CC1Sc1nc2ccccc2[nH]1 (centres unmarked),1.22
8,O=C(CC1SC(N2CCCCC2)=NC1=O)Nc1ccc(C(=O)O)cc1 (centres unmarked),22.1
9,O=C1CCCN1c1ccc(Br)cc1,5.28
10,CC(=O)Nc1c2c(nn1-c1ccc(F)cc1)CSC2,13.8
11,O=C(NN=C1CCCCCC1)c1cn(-c2ccccc2)nc1-c1ccccc1,-2.15
12,CCN1CCN(C(=O)CN(CC)S(=O)(=O)c2ccc(Cl)cc2)CC1,-13.3
13,COc1cc(O)c(C(CC(=O)N2CCOCC2)c2ccc3c(c2)OCO3)c(OC)c1 (centres unmarked),7.98
14,Cc1cc(C)nc(/N=C(\NC(=O)C(C)(C)C)Nc2ccccc2)n1,18.6
15,CC(=O)n1c2c(c3ccccc31)OC(N)=C(C#N)C2c1ccc(C(C)C)cc1 (centres unmarked),4.51
16,Cc1nn(CC(O)Cn2cnc3c2c(=O)n(C)c(=O)n3C)c(C)c1Br (centres unmarked),-8.63
17,CC1(C)Oc2ccc3ccc(=O)oc3c2/C(=C/O)C1=O,10.5
18,CCCCN(CC)C(=O)c1cc2cc3ccc(Cl)cc3nc2o1,-9.93
19,N#C/C(=C\c1ccccc1)c1n[nH]c(Cn2cncn2)n1,3.6
20,CC(=O)[C@H]1[C@H](CCc2ccccc2)NC(=O)N(Cc2ccccc2)[C@@H]1C,-17.8
21,O=C(O)CN1C(=O)/C(=C2\SC(=S)N(C(Cc3ccccc3)C(=O)O)C2=O)c2ccccc21 (centres unmarked),2.15
22,Cc1ccccc1C1=NCC(=O)N(CC(=O)NCc2ccco2)c2sc3c(c21)CCCC3,-32.8
23,COc1ccccc1CNC(=O)CCCN1C(=O)COc2ccc(C)cc21,-26

row,SMILES,"hERG current change (%, negative = inhibition) at 10uM [%]"
1,CCCNC(=O)C1CN(S(=O)(=O)c2ccccc2)CCN1S(=O)(=O)c1ccccc1 (centres unmarked),-7.34
2,Cc1cc(C)c(C#N)c(SCC(=O)N2CCCCC2)n1,17
3,CC1CN(CC(=O)Nc2ccc(Br)cn2)CC(C)O1 (centres unmarked),17.9
4,O=[N+]([O-])c1ccc(-n2cccc2/C=N/Nc2nc(N3CCCCC3)nc(N3CCCCC3)n2)cc1,15.1
5,CCOC(=O)C1CCCN(CC(=O)Nc2nc(-c3ccccc3)cs2)C1 (centres unmarked),-27.3
6,CN(Cc1ccccc1)C1CCCN(C(=O)c2ccc(Cl)s2)C1 (centres unmarked),-30.4
7,O=C(c1cc(-c2ccc(Cl)cc2Cl)on1)N1CCCCCC1,0.184
8,Nc1cc(=O)[nH]c(SCC(=O)N2CCCCC2)n1,40.8
9,CC(C)N1CCC(N2CCN(Cc3cc(F)ccc3-n3cccn3)CC2CCO)CC1 (centres unmarked),-8.1
10,COCCN(CC(=O)Nc1cccc(C)c1C)C(=O)c1cc2c(s1)CCC2,-3.94
11,CC(/C=C/c1ccccc1)=N/O,-0.00622
12,CC(C)c1nnc(NC(=O)CCC(=O)Nc2ccccc2)s1,3.52
13,CCOc1ccc(CCNC(=O)CS(=O)Cc2nc(-c3ccccc3Cl)oc2C)cc1OCC (centres unmarked),-10.7
14,CC(=O)CCc1c(C)nc2ccc(C(=O)O)cc2c1Cl,23.9
15,CCc1ccc(-c2csc(NC(=O)Oc3ccccc3)n2)cc1,0.389
16,S=C(Nc1ccc(Cl)cc1)NN1CCOCC1,-0.582
17,Cc1ccc(S(=O)(=O)N2CCCCC2)cc1NC(=O)Cc1c[nH]c2ccccc12,-14.4
18,O=C(CCCc1ccccc1)NCCc1ccc(F)cc1,4.27
19,Cc1sc2nc(CC(=O)NN)[nH]c(=O)c2c1C,4.87
20,CC(C)COc1ccc(C(=O)Nc2cc(S(=O)(=O)N3CCOCC3)ccc2N2CCCC2)cc1,-0.0415
